Holding throughout (assay): cell-based or functional assay
The target in experiment [1] is intermediate affinity hIL-2 receptor (hIL-2Rβγ) on TF1+IL-2Rβ cells (human) (UniProt P14784).
Experiment [2] concerns the target high-affinity hIL-2 receptor (IL-2Rαβγ) on NK-92 cells (human) (UniProt P01589).
Experiment [3] deals with intermediate affinity hIL-2 receptor complex (IL-2Rβγ) on TF1+IL-2Rβ cells (human) (UniProt P14784).
The target in experiment [4] is high-affinity hIL-2 receptor (IL-2Rαβγ) (human) (UniProt P01589).
Experiment [5] concerns the target intermediate affinity hIL-2 receptor complex (IL-2Rβγ) (human) (UniProt P14784).

B1: 1H3-hIgG1-L6-hIL-2 (D20A/E95A/Y45K) (protein)
heavy: EVQLVESGGGLVQPGRSLKLSCAVSGFTFSDYAMAWVRQAPKKGLEWVATISYDGSRTYYRDSVKGRFTISRDNAKITLYLQMDSLRSEDTATYYCARHGSGYFDYWGQGVMVTVSS[not shown - human IgG1 constant region]SGGGGSAPTSSSTKKTQLQLEHLLLALQMILNGINNYKNPKLTRMLTFKFKMPKKATELKHLQCLEEELKPLEEVLNLAQSKNFHLRPRDLISNINVIVLALKGSETTFMCEYADETATIVEFLNRWITFCQSIISTLT
light: DTVLTQSPALAVSPGERVTISCRASESVRTGVHWYQQKPGQQPKLLIYGASNLESGVPARFSGSGSGTDFTLTIDPVEADDTATYFCQQSWNDPFTFGSGTKLEIKRTVAAPSVFIFPPSDEQLKSGTASVVCLLNNFYPREAKVQWKVDNALQSGNSQESVTEQDSKDSTYSLSSTLTLSKADYEKHKVYACEVTHQGLSSPVTKSFNRGEC
Turning to B1, in experiment [1], the Agonistic Activity (TF1 + IL-2Rβ) was found to be 60% and the Fold change from rhIL-2 (TF1 + IL-2Rβ) came to 383 fold. In addition, in experiment [2], the Agonistic Activity (NK-92) came out at 20%, the Fold change from hIL-2 (NK-92) was 22 fold and the Fold change from rhIL-2 (NK-92) is over 10000 fold. In addition, the Fold change from hIL-2 (TF1 + IL-2Rβ) in experiment [3] turned out to be 6 fold. In addition, in experiment [4], the Agonistic Activity (NK-92), pSTAT5 titration stood at 70% and the Fold change from rhIL-2 (NK-92), pSTAT5 titration is 7950 fold. Also, in experiment [5], the Agonistic Activity (TF1 + IL-2Rβ), pSTAT5 titration came to 60% and the Fold change from rhIL-2 (TF1 + IL-2Rβ), pSTAT5 titration is 205 fold.

B2: 1H3-hIgG1-L6-hIL-2 (D20A/E95A/L72H) (protein)
heavy: EVQLVESGGGLVQPGRSLKLSCAVSGFTFSDYAMAWVRQAPKKGLEWVATISYDGSRTYYRDSVKGRFTISRDNAKITLYLQMDSLRSEDTATYYCARHGSGYFDYWGQGVMVTVSS[not shown - human IgG1 constant region]SGGGGSAPTSSSTKKTQLQLEHLLLALQMILNGINNYKNPKLTRMLTFKFYMPKKATELKHLQCLEEELKPLEEVLNHAQSKNFHLRPRDLISNINVIVLALKGSETTFMCEYADETATIVEFLNRWITFCQSIISTLT
light: B1 light
For B2, in experiment [1], the Agonistic Activity (TF1 + IL-2Rβ) turned out to be 80% and the Fold change from rhIL-2 (TF1 + IL-2Rβ) came to 135 fold. In experiment [2], this molecule registered an Agonistic Activity (NK-92) of 60%, a Fold change from hIL-2 (NK-92) of 14 fold and a Fold change from rhIL-2 (NK-92) of 583 fold. For the same molecule, the Fold change from hIL-2 (TF1 + IL-2Rβ) in experiment [3] was found to be 6 fold. In experiment [4], this molecule registered an Agonistic Activity (NK-92), pSTAT5 titration of 70% and a Fold change from rhIL-2 (NK-92), pSTAT5 titration of 798 fold. In experiment [5], the Agonistic Activity (TF1 + IL-2Rβ), pSTAT5 titration is 70% and the Fold change from rhIL-2 (TF1 + IL-2Rβ), pSTAT5 titration is 117 fold.

B3: 1H3-hIgG1-L6-hIL-2 (D20A/E95A/L72R) (protein)
heavy: EVQLVESGGGLVQPGRSLKLSCAVSGFTFSDYAMAWVRQAPKKGLEWVATISYDGSRTYYRDSVKGRFTISRDNAKITLYLQMDSLRSEDTATYYCARHGSGYFDYWGQGVMVTVSS[not shown - human IgG1 constant region]SGGGGSAPTSSSTKKTQLQLEHLLLALQMILNGINNYKNPKLTRMLTFKFYMPKKATELKHLQCLEEELKPLEEVLNRAQSKNFHLRPRDLISNINVIVLALKGSETTFMCEYADETATIVEFLNRWITFCQSIISTLT
light: B1 light
Consider B3, for which, in experiment [1], the Agonistic Activity (TF1 + IL-2Rβ) is 40% and the Fold change from rhIL-2 (TF1 + IL-2Rβ) was 316 fold. In experiment [2], the Agonistic Activity (NK-92) stood at 50%, the Fold change from hIL-2 (NK-92) was found to be 12 fold and the Fold change from rhIL-2 (NK-92) worked out at 655 fold. For the same molecule, the Fold change from hIL-2 (TF1 + IL-2Rβ) in experiment [3] was 9 fold. In addition, the Fold change from rhIL-2 (NK-92), pSTAT5 titration in experiment [4] came out at 1180 fold. In experiment [5], the Agonistic Activity (TF1 + IL-2Rβ), pSTAT5 titration was 70% and the Fold change from rhIL-2 (TF1 + IL-2Rβ), pSTAT5 titration came out at 499 fold.

B4: 1H3-hIgG1-L6-hIL-2 (D20A/E95A/E68L) (protein)
heavy: EVQLVESGGGLVQPGRSLKLSCAVSGFTFSDYAMAWVRQAPKKGLEWVATISYDGSRTYYRDSVKGRFTISRDNAKITLYLQMDSLRSEDTATYYCARHGSGYFDYWGQGVMVTVSS[not shown - human IgG1 constant region]SGGGGSAPTSSSTKKTQLQLEHLLLALQMILNGINNYKNPKLTRMLTFKFYMPKKATELKHLQCLEEELKPLELVLNLAQSKNFHLRPRDLISNINVIVLALKGSETTFMCEYADETATIVEFLNRWITFCQSIISTLT
light: B1 light
With B4, in experiment [1], the Agonistic Activity (TF1 + IL-2Rβ) was found to be 60% and the Fold change from rhIL-2 (TF1 + IL-2Rβ) came out at 972 fold. Also, in experiment [2], the Fold change from hIL-2 (NK-92) is 7 fold and the Fold change from rhIL-2 (NK-92) was 15 fold. In experiment [3], the Fold change from hIL-2 (TF1 + IL-2Rβ) stood at 9 fold. In experiment [4], this molecule displayed an Agonistic Activity (NK-92), pSTAT5 titration of 80% and a Fold change from rhIL-2 (NK-92), pSTAT5 titration of 187 fold. In experiment [5], the Agonistic Activity (TF1 + IL-2Rβ), pSTAT5 titration came out at 40% and the Fold change from rhIL-2 (TF1 + IL-2Rβ), pSTAT5 titration worked out at 172 fold.

B5: 1H3-hIgG1-L6-hIL-2 (D20A/E95A/E61A) (protein)
heavy: EVQLVESGGGLVQPGRSLKLSCAVSGFTFSDYAMAWVRQAPKKGLEWVATISYDGSRTYYRDSVKGRFTISRDNAKITLYLQMDSLRSEDTATYYCARHGSGYFDYWGQGVMVTVSS[not shown - human IgG1 constant region]SGGGGSAPTSSSTKKTQLQLEHLLLALQMILNGINNYKNPKLTRMLTFKFYMPKKATELKHLQCLEAELKPLEEVLNLAQSKNFHLRPRDLISNINVIVLALKGSETTFMCEYADETATIVEFLNRWITFCQSIISTLT
light: B1 light
As to B5, in experiment [1], the Agonistic Activity (TF1 + IL-2Rβ) came out at 80% and the Fold change from rhIL-2 (TF1 + IL-2Rβ) worked out at 702 fold. In experiment [2], this molecule gave an Agonistic Activity (NK-92) of 80%, a Fold change from hIL-2 (NK-92) of 10 fold and a Fold change from rhIL-2 (NK-92) of 306 fold. Also, the Fold change from hIL-2 (TF1 + IL-2Rβ) in experiment [3] amounted to 6 fold. For the same molecule, in experiment [4], the Agonistic Activity (NK-92), pSTAT5 titration amounted to 80% and the Fold change from rhIL-2 (NK-92), pSTAT5 titration was 367 fold. In experiment [5], the Agonistic Activity (TF1 + IL-2Rβ), pSTAT5 titration turned out to be 60% and the Fold change from rhIL-2 (TF1 + IL-2Rβ), pSTAT5 titration was determined as 195 fold.

B6: 1H3-hIgG1-L6-hIL-2 (D20A/E95A/E62A) (protein)
heavy: EVQLVESGGGLVQPGRSLKLSCAVSGFTFSDYAMAWVRQAPKKGLEWVATISYDGSRTYYRDSVKGRFTISRDNAKITLYLQMDSLRSEDTATYYCARHGSGYFDYWGQGVMVTVSS[not shown - human IgG1 constant region]SGGGGSAPTSSSTKKTQLQLEHLLLALQMILNGINNYKNPKLTRMLTFKFYMPKKATELKHLQCLEEALKPLEEVLNLAQSKNFHLRPRDLISNINVIVLALKGSETTFMCEYADETATIVEFLNRWITFCQSIISTLT
light: B1 light
As for B6, in experiment [1], the Agonistic Activity (TF1 + IL-2Rβ) stood at 60% and the Fold change from rhIL-2 (TF1 + IL-2Rβ) was determined as 661 fold. In addition, in experiment [2], the Agonistic Activity (NK-92) stood at 20%, the Fold change from hIL-2 (NK-92) was found to be 23 fold and the Fold change from rhIL-2 (NK-92) was over 10000 fold. Besides, the Fold change from hIL-2 (TF1 + IL-2Rβ) in experiment [3] came out at 6 fold. In addition, in experiment [4], the Agonistic Activity (NK-92), pSTAT5 titration stood at 70% and the Fold change from rhIL-2 (NK-92), pSTAT5 titration is 3260 fold. Besides, in experiment [5], the Agonistic Activity (TF1 + IL-2Rβ), pSTAT5 titration stood at 50% and the Fold change from rhIL-2 (TF1 + IL-2Rβ), pSTAT5 titration came to 230 fold.

These data come from patent US20240076343A1.
